# Measured values taken from PubChem BioAssay AID488969 (Vanderbilt High Throughput Screening Facility, 2010).
# Whole data set: some 110,000 compounds, median “z-score” near -0.1, cut for the highest 2% near 2. Some of the results follow. Calls of active or inactive are those of the source.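 The calls were made as follows: active = z-score in the third read window above 3 or below -3; inactive = the rest.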
# Molecular target: Metabotropic glutamate receptor 8 (Rattus norvegicus) (UniProt P70579)
# Assay: mGluR8 Gi/Go-coupled signaling modulation – cell-based, rat, thallium flux, HTS, primary screen (AID 488969)
# Conditions: HEK293 rat mGluR8, GIRK (G protein-gated inwardly rectifying potassium channel) thallium flux, FluoZin2; at 10 µM; stronger effect = higher value; submaximal glutamate (EC20) added with thallium
# Chain of UniProt P70579 (P70579 whole entry, looked up): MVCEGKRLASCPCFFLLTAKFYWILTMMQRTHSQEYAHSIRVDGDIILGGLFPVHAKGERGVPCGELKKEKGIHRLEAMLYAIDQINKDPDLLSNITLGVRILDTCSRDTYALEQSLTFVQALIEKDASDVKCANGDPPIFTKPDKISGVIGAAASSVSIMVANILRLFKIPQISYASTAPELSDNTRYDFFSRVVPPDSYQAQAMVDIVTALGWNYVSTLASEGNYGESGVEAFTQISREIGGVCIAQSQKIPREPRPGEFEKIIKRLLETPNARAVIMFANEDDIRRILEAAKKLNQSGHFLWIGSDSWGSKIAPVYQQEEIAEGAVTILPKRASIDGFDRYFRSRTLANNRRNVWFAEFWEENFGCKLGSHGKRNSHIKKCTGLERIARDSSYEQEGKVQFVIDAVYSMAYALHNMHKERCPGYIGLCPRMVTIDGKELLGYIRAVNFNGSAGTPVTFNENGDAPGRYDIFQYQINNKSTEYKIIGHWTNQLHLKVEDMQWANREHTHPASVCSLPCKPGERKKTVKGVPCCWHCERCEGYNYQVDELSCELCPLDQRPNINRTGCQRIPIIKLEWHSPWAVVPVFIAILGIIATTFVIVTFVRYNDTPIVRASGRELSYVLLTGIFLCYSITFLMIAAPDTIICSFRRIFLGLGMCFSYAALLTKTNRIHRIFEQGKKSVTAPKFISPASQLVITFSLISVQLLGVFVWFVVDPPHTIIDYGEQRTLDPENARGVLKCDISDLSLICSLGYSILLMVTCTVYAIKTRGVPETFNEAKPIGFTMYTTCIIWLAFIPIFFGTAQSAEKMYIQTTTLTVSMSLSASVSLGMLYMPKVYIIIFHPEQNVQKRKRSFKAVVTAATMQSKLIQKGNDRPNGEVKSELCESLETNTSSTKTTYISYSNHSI
row,Structure (SMILES),z-score
1,O=c1[nH]c2ccc(Cl)cc2c(-c2ccccc2)c1N1CCN(CCO)CC1,0.464
2,O=C(O)c1ccccc1SCC(=O)N1CCCCC1,0.108
3,c1ccc(CCc2nc(-c3ccc(-n4cccc4)cc3)no2)cc1,-0.257
4,Cc1ccc(/C=N/NC(=O)CN2CCN(S(=O)(=O)c3ccc(Br)cc3)CC2)s1,-0.2
5,O=C(CCC(=O)NNC(=S)Nc1ccccc1)NCc1ccccc1,0.863
6,O=[N+]([O-])c1ccc(Cl)cc1CNc1ccc(F)c(F)c1,-0.334
7,NS(=O)(=O)c1ccc(S(=O)(=O)N2CCCC2)cc1,active: 3.11
8,Cc1ccc(NC(=O)CC2S/C(=N/c3nccs3)N(C)C2=O)cc1C (stereo unspecified),0.00123
9,O=C(CCc1nc2ccccc2[nH]c1=O)OCC(=O)c1cccc2ccccc12,-0.219
10,O=C1OC(c2ccco2)=N/C1=C\c1ccc(-c2cccc(C(F)(F)F)c2)o1,0.0441
11,COC(=O)c1ccc(NC(=O)CSc2nnc(-c3ccncc3)n2N)cc1,0.0398
12,CCn1cc(C(=O)NCc2ccc3c(c2)OCO3)c(=O)c2cc(F)c(N3CCN(C(=O)c4ccco4)CC3)cc21,0.0623
13,O=C(c1ccc(COc2ccccc2Br)o1)N1N=C(C(F)F)CC1(O)C(F)F (stereo unspecified),-0.077
14,O=C(NCc1ccco1)c1nc2ccccc2s1,0.761
15,Cc1cc(NC(=O)CSc2nnc(-c3ccco3)o2)no1,0.184
16,COc1ccc(OC(=O)CCCN2C(=O)c3ccccc3C2=O)cc1,-0.445
17,COc1cccc(/C=N/NC(=O)C(=O)NCc2ccco2)c1O,-0.247
18,Cc1ccsc1/C=N/NC(=O)CN1CCN(S(=O)(=O)c2ccc(Br)cc2)CC1,-0.212
19,COc1ccc(OC)c(C2CC(=O)C(C)C(c3cc(OC)ccc3OC)N2)c1 (stereo unspecified),-0.118
20,COC(=O)COc1cc(C)cc2oc(=O)c(CC(=O)OC)c(C)c12,-0.413
21,CCOC(=O)N1CCC(NC(=O)CCN2C(=O)COc3ccccc32)CC1,0.755
22,Cn1c(=O)n(-c2ccccc2)c(=O)c2c3c(sc21)COC(C)(C)C3,-0.531
23,CCCn1c(C(O)c2ccc(OCC)cc2)nc2ccccc21 (stereo unspecified),-0.413

row,Structure (SMILES),z-score
1,O=C(NCCc1ccc2c(c1)OCCO2)c1cccc(F)c1,-0.00674
2,CC1=C(C(=O)OCC2CCCO2)C(c2ccc(C)o2)C2=C(CC(c3ccc(N(C)C)cc3)CC2=O)N1 (stereo unspecified),-0.22
3,COC(=O)C1=C(C)N(CCc2ccccc2)C(=O)C1,-0.0388
4,COc1cc2cc(C(c3nnnn3Cc3ccc(F)cc3)N3CCCCCC3)c(=O)[nH]c2cc1OC (stereo unspecified),-0.985
5,CC/C(C)=C1\SC(N2CCOCC2)=NC1=O,0.503
6,COc1cccc(C2C(C#N)=C(N)OC(C(C)(C)C)=C2C#N)c1 (stereo unspecified),-0.199
7,CCOc1cc(C(c2c(C)[nH][nH]c2=O)c2c(C)[nH][nH]c2=O)ccc1O,-0.416
8,O=C(CSc1oc(-c2ccc(F)cc2)nc1S(=O)(=O)c1ccc(F)cc1)NCC1CCCO1 (stereo unspecified),-0.0792
9,N#Cc1ccccc1NC(=O)c1ccccc1OCC(=O)NCc1ccco1,-1.06
10,CCn1cc(SCC(=O)N2CCOCC2)c2ccccc21,0.00169
11,COc1cc(CC(=O)NNC(=O)c2cc(C)oc2C)cc(OC)c1OC,0.0792
12,Cc1ccc(N(Cc2cc3ccccc3[nH]c2=O)S(=O)(=O)c2ccccc2)cc1,-0.384
13,COc1ccc(N2C(=O)CC(S/C(N)=N/N=C(\C)c3cccs3)C2=O)cc1 (stereo unspecified),0.045
14,C=CCNCc1cccn1-c1sc2c(c1C#N)CCCC2,2.43
15,COc1cc(CNc2ccc(CNc3ncn[nH]3)cc2)ccc1OCc1ccccc1,-0.026
16,CC(C)N(CC(N)=O)C(=O)Cc1coc2cc3c(cc12)CCC3,-0.0389
17,CCc1nn2c(=O)cc(CSc3nc4sc5c(c4c(=O)n3C)CCCC5)nc2s1,-0.264
18,COCCN(CCOC)Cc1c(C)[nH]c2c(C)c(C)ccc2c1=O,0.275
19,CC(C)CNS(=O)(=O)c1ccc(OCC(=O)NCC2CCCO2)c(Cl)c1 (stereo unspecified),-0.0742
20,O=C(NC(=S)NC1CCCCCC1)c1cncc(Br)c1,active: 6.87
21,Cc1ccc2c(COC(=O)C34CC5CC(CC(C5)C3)C4)cc(=O)oc2c1,-0.0436
22,O=C(COCC(=O)N/N=C/c1ccc(F)cc1)N/N=C/c1ccc(F)cc1,-0.185
23,CC(C)(C)n1ncc2c(=O)n(CC(=O)Nc3ccccc3)cnc21,0.85

row,Structure (SMILES),z-score
1,CN(C)/C=C/C(=O)c1ccc(F)cc1,-0.0356
2,Cc1nc(N2CCC3(CC2)OCCO3)c2nnn(Cc3ccccc3F)c2n1,0.309
3,COc1ccc(C(C)(C)C)cc1NC(=O)COC(=O)c1cc(SC)ccc1Cl,-0.276
4,O=C(NCc1cccnc1)c1ccccc1Br,-0.775
5,CCOc1ccc(NC(=O)CSc2nnc(-c3ccccn3)n2N)cc1,0.287
6,Cc1cc(NC(=O)CCC(=O)N(CCc2ccccc2)C(C(=O)NC2CCCC2)c2ccco2)no1 (stereo unspecified),-0.923
7,Cc1ccc(NC(=O)CC2NCCNC2=O)cc1 (stereo unspecified),-0.155
8,COC(=O)c1[nH]c2ccc(F)cc2c1NS(=O)(=O)c1ccc(OC)cc1OC,0.0395
9,CCC(C)n1c(NC(=O)c2ccccc2)c(C#N)c2nc3ccccc3nc21 (stereo unspecified),-0.0962
10,C=CCSc1nnc(-c2ccccc2NC(=O)CC)c(=O)[nH]1,-0.39
11,O=C(C1CC(c2cccc(Br)c2)=NO1)N1CCc2ccccc2C1 (stereo unspecified),-0.791
12,Cc1ccc(SCc2ccc(C(=O)Nc3cccnc3)cc2)cc1,-0.13
13,O=C(OCCNC(=O)c1cc2ccccc2oc1=O)c1cccnc1,-0.413
14,O=C(NCCN1CCN(C(=O)C(c2ccccc2)c2ccccc2)CC1)C(=O)Nc1ccccc1,0.133
15,CCC(C)OC(=O)C1C(c2ccccc2)C(C(=O)O)C1c1ccccc1 (stereo unspecified),-0.178
16,Cc1ccc(-c2nnc(CSc3nnc(COc4cccc5ccccc45)n3-c3ccccc3)o2)cc1,-0.172
17,Cc1ccc(-c2cc(-c3n[nH]c(=S)o3)c3ccccc3n2)cc1,active: 8.6
18,c1ccc(-c2csc3nnc(SCc4ccc5c(c4)OCCO5)n23)cc1,-0.984
19,CCN1CCN(c2cc(C)c3cc(NC(=O)c4ccc5c(c4)OCO5)ccc3n2)CC1,-0.805
20,COc1ccc(CNc2cccc(F)c2)cc1Br,-0.144
21,Nc1c2c(nc3ccccc13)CCC2,1.23
22,O=C(Nc1c(Cl)cccc1Cl)c1cc(=O)n(Cc2ccccc2)c(=O)[nH]1,0.0378
23,COc1ccc(C(C)=O)cc1CSc1nc2ccccc2o1,-0.0585

row,Structure (SMILES),z-score
1,Cc1ccc(C)c(C(=O)c2c(C)nc3sccn23)c1,active: -4.12
2,CCOc1ccc(N2CC(C(=O)Nc3ncccc3C)CC2=O)cc1 (stereo unspecified),0.194
3,O=C(/C=C/c1cccc([N+](=O)[O-])c1)NCCSCc1ccc(Cl)cc1Cl,-0.000138
4,Cc1ccc(NC(=O)CSc2nnc(NC(=O)CN3CCOCC3)s2)cc1,-0.125
5,CC1CN(C(=O)CSc2nnc3c(Cl)cc(Cl)cn23)CC(C)O1 (stereo unspecified),-0.362
6,COCCNC(=O)C(OC(=O)CC1Sc2ccccc2NC1=O)c1ccncc1 (stereo unspecified),-0.574
7,O=C(CSc1ccccc1)NCc1cccnc1,-0.103
8,CCOc1ccccc1N(C(=O)CNS(=O)(=O)c1ccccc1)C(CC)C(=O)NCc1ccco1 (stereo unspecified),-0.997
9,O=C(NCC1CCCO1)C1CCCN1C(=O)NC1CCCCC1 (stereo unspecified),-0.138
10,O=C(NCc1cccs1)c1ccccc1C(=O)NCc1cccs1,-0.214
11,O=C(O)Cc1ccc(C(=O)c2cccs2)s1,-0.271
12,CCCCN1CC(C(=O)NC2CCCCC2)CC1=O (stereo unspecified),0.573
13,COc1ccc2nc(NC(=O)C(NS(=O)(=O)c3cccc4nsnc34)C(C)C)sc2c1 (stereo unspecified),0.032
14,Cc1ccnc2nc(C(=O)NC3=NCCS3)nn12,0.119
15,O=C1CSC(=Nc2ccccc2)N1,-0.108
16,CCOc1ccc(C(=O)N(CN2CCCC2=O)c2ccccc2)cc1,0.0717
17,O=C(Nc1nccs1)c1ccc(COc2ccc(Cl)cc2)o1,-0.0268
18,COc1ccc(C(=O)CN(C(=O)c2ccc(Cl)cc2)N2C(=O)c3ccccc3C2=O)cc1,-0.126
19,COC(=O)Cc1c(C)c2ccc(OC(=O)c3ccco3)cc2oc1=O,0.417
20,CCOc1ccc(NC(=O)CSc2nnc(CCNC(=O)c3ccc(OC)cc3)n2CC)cc1,-0.0739
21,Cn1nc(C(F)(F)F)c(/C=N/OC(=O)c2ccccc2)c1SCc1ccccc1Cl,0.189
22,Cc1ccc(NC(=S)NCCc2ccc(F)cc2)c(C)c1,-0.233
23,O=C(CCCNC(=O)/C(=C\c1ccccc1F)NC(=O)c1ccccc1)OCc1ccccc1,-0.248

row,Structure (SMILES),z-score
1,CCOC(=O)CSc1nnc(NCC(=O)OC)c(=O)[nH]1,-0.346
2,O=C(Nc1ccccn1)NC1CCCCC1,-0.444
3,Cc1ccc(S(=O)(=O)CCc2nnc(NC(=O)C3CCCO3)s2)cc1 (stereo unspecified),-0.334
4,CCn1c2ccc(OC)cc2c2nc3ccccc3nc21,-0.632
5,O=C(CCSc1ccc(Cl)cc1)c1cccs1,0.538
6,Cc1noc(C)c1COc1cccc(C(=O)Nc2ccc(C#N)cc2)c1,-1.78
7,COc1ccc(C(=O)CSc2nnc(-c3ccc(C)cc3)o2)cc1,2.18
8,O=C(c1ccco1)N1CCN=C1SCc1cccc(Cl)c1,0.782
9,O=C(NCCO)c1ccc2c(c1)S(=O)(=O)c1ccccc1C2=O,-1.34
10,O=[N+]([O-])c1ccc(-c2cc(-c3ccc(Cl)cc3)n[nH]2)cc1,-0.0692
11,COc1cc(C(=O)Nc2nc3ccccc3[nH]2)cc(OC)c1OC,-0.435
12,Cc1ccc2c(c1)CCCN2C(=O)c1ccncc1,0.255
13,CCOC(=O)CCC(=O)NCc1ccc2c(c1)cc(C)n2C,-0.28
14,CCCOc1ccc(C(CC(=O)O)NC(=O)C23CC4CC(CC(C4)C2)C3)cc1 (stereo unspecified),-0.264
15,CCS(=O)(=O)NCC(c1cccnc1)N1CCN(c2ccc(F)cc2)CC1 (stereo unspecified),0.351
16,CCOC(=O)c1c(NC(=O)CN2CCOCC2)sc(C(=O)NC)c1C,-0.161
17,O=C(CCN1C(=O)C2C3C=CC(C3)C2C1=O)NCCc1ccccc1Cl (stereo unspecified),0.0144
18,CCn1c(COc2cccc3cccnc23)nnc1SCC(=O)O,-0.125
19,COc1cc(NC(=O)c2ccc3c(=O)n(Cc4ccco4)c(=S)[nH]c3c2)cc(OC)c1OC,-0.49
